# Out of some 16,000 compounds screened, about 120 (0.75%) were called active. Another 4% or so got no clear call; they are omitted. Calls follow the shape of the dose curve; as a rule, active = well fitted inhibition curve with a large enough effect; inconclusive = small, poorly fitted or top-dose-only effect; inactive = no such curve, though single readings can be large or run the other way. The list shows a part of the results.
# Molecular target: Rap guanine nucleotide exchange factor 3 (Homo sapiens) (UniProt O95398)
# Sequence of UniProt O95398 (O95398 whole entry, looked up): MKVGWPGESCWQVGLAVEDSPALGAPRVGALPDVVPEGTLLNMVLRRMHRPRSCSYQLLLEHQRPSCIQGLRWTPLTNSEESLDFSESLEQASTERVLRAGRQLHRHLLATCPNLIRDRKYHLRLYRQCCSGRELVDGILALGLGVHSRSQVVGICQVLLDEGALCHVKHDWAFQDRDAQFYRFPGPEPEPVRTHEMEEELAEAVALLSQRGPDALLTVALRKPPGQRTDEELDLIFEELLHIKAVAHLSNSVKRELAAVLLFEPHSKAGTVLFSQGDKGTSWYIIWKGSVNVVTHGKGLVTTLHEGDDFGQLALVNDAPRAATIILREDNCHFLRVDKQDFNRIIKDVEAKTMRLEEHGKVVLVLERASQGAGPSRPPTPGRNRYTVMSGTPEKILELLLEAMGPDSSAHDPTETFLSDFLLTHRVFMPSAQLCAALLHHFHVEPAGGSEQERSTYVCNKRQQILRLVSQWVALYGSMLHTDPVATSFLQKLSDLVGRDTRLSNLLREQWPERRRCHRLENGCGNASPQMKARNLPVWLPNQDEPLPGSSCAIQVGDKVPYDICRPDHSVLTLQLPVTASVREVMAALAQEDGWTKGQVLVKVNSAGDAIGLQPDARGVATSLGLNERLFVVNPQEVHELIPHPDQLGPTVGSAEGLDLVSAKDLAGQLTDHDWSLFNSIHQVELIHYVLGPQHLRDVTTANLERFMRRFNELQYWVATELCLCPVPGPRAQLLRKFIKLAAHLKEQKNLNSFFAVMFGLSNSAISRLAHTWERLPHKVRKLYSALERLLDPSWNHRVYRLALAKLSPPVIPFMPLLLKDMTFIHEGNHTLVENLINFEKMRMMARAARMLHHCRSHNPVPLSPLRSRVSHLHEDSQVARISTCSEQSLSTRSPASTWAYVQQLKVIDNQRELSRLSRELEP
# Assay: Validation qHTS for antagonist of cAMP-regulated guanine nucleotide exchange factor 3 (EPAC1); also: nearly all actives have a fitted effect of over 75% in size;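 as to activity change, negative = inhibition: plate controls were DMSO for no effect and ATA control for full effect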
# Settings: EPAC1 Rap1B-BODIPY-GDP exchange, fluorescence; series mostly up to 150 µM; activity change, negative = inhibition: at the top concentration
# Summary of the method: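 Nucleotide exchange followed as fluorescence loss when BODIPY-GDP leaves Rap1B (480 nm excitation, 540 nm emission), read at 5 min intervals over 30 min. Reaction: 100 nM EPAC1, 250 nM RAP1B-BODIPY-GDP, 50 uM GDP; ATA and DMSO define normalization.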
# Potency is read from the fitted curve at half-maximal effect.
Structure (SMILES),"activity change, negative = inhibition",Potency
COc1ccccc1CNc1nc(-c2cccc(NS(C)(=O)=O)c2)nc2ccccc12,inactive: -12.4%,–
COc1ncc2nc(-c3ccc(Cl)cc3)c(=O)n(CCC#N)c2n1,inactive: -0.121%,–
CCCCC/C=C\C[C@@H](O)/C=C/C=C/C=C\[C@@H](O)CCCC(=O)O,inactive: 0.23% [at 1.57 µM],–
Cc1[nH]cnc1C[C@H]1CCc2c(C)c3ccccc3n2C1=O,inactive: 11.8%,–
CCC(C)N(C)C(=O)c1cc2ccccc2c(-c2ccccc2Cl)n1 (stereo not given),inactive,–
COc1ccc(-c2nc3cnc(N4CCNCC4)nc3n(CCC#N)c2=O)cc1,inactive: 17.3%,–
Cc1ccc2c(c1)cc(CN(C)Cc1nc(C)cs1)c(=O)n2C,inactive: 7.65%,–
Cc1cnc(CNc2ncnc3ccc(-c4ccccc4CN(C)C)cc23)cn1,inactive: 25.8%,–
COc1cc2c(cc1C(F)(F)F)N(C(=O)Nc1cc(F)cc(-c3cccnc3)c1)CC2,inactive: -17%,–
O=c1cnc2cnc(Oc3ccccc3)nc2n1C1CC1,inactive: -0.744%,–
OC1C(O)C(O)C(O)C(O)C1O (stereo not given),inactive: 7.45%,–
CC(C)(CNC(=O)c1cnn(-c2ncc3c(n2)-c2ccccc2CC3)c1C1CC1)N1CCOCC1,inactive: 14.1%,–
Nc1nc2ccc(Cl)cc2c2nc(-c3ccco3)nn12,inactive,–
CN=C(NC)NCc1ccccc1,inactive: 23.5%,–
C=C[C@@H]1c2cc(C)ccc2N(S(=O)(=O)c2ccc(C)cc2)[C@H](c2ccccc2C(F)(F)F)C1(C#N)C#N,inactive: 9.89%,–
CCC1CN(CCNC(=O)c2cccc3nccnc23)Cc2cc(OC)ccc2O1 (stereo not given),inactive: 14.2%,–
COc1ccc(CNc2nc(-c3ccc(N(C)C)cc3)nc3ccccc23)c(OC)c1,inactive: -14%,–
COc1ccccc1CN1CCCC2(CCNCC2)C1,inactive: 8.56%,–
O=c1[nH]c(=O)n(C2CCCO2)cc1F (stereo not given),inactive: 15.2%,–
CC(NCCC(c1ccccc1)c1ccccc1)c1ccccc1 (stereo not given),inactive: 16.7%,–
CCCCCCCCCCCCOCCCN,inactive: 9.97%,–
FC(F)(F)c1ccccc1-c1ccc2ncnc(NCc3cccs3)c2c1,inactive: -8.08%,–
O=C(c1cnccn1)N1CCC2(CC1)CN(c1ncccn1)C2,inactive: 24.3%,–
CC(=O)N1CCC2(CC1)CN(Cc1cc(C(F)(F)F)cc(C(F)(F)F)c1)C2,inactive: 6.97%,–
Cc1cccc(C(=O)NCc2nc(-c3cccc(NC(=O)C4CCCN(C)C4)c3)oc2C)n1 (stereo not given),inactive: 12.9%,–
C=CCN1[C@@H](Cc2ccccc2)COCCS1(=O)=O,inactive: -11%,–
COc1cc2c3cc1Oc1c(OC)c(OC)cc4c1[C@@H](Cc1ccc(O)c(c1)Oc1ccc(cc1)C[C@@H]3N(C)CC2)N(C)CC4,inactive: 0.714%,–

Structure (SMILES),"activity change, negative = inhibition",Potency
OC1CCN(Cc2ccc3c(c2)CN(Cc2ccc(Oc4ncccn4)cc2)CCO3)CC1,inactive: 2.44%,–
CCC1CN(CCC(=O)NC2CCOC(C)(C)C2)Cc2cc(OC)ccc2O1 (stereo not given),inactive: 6.52%,–
Cc1csc(C(C)N(C)C(=O)c2cnn(-c3nccc(-c4cc(C)sc4C)n3)c2C)n1 (stereo not given),inactive: 6.01%,–
Cc1c(N(C)CS(=O)(=O)O)c(=O)n(-c2ccccc2)n1C,inactive,–
CCC1(C2CCN(Cc3ccccc3Cl)CC2)NC(=O)N(CC2COc3ccccc3O2)C1=O (stereo not given),inactive: -5.39%,–
CCC1COCCS(=O)(=O)N1Cc1ccc(F)cc1 (stereo not given),inactive: 8.93%,–
COc1ccc([C@H]2c3cc(OC)c(OC)cc3C[C@@H](C)[C@@H]2C)cc1OC,inactive: -12.5%,–
CNc1ncnc2ccc(-c3ccccc3C#N)cc12,inactive: 5.44%,–
COc1cc(OC)c(OC)cc1CN1CCCC(c2[nH]ncc2-c2cccc(C(F)(F)F)c2)C1 (stereo not given),inactive: 4.76%,–
COc1ccc2c3c1OC1CC(O)C=C[C@@]31CCN(C)C2 (stereo not given in full),inactive: 4.44%,–
Cc1noc(C)c1C(=O)N1CCC[C@@]2(CCN(c3ncccn3)C2)C1,inactive: 9.67%,–
CN1CCC[C@@H]1c1cccnc1,inactive: 18.4%,–
O=C(Nc1ccccc1)N1CC[C@@]2(CCCN(C(=O)c3ccncc3)C2)C1,inactive: 22.9%,–
CC(C)c1ccc(CN2CCC3(CCC(CNC(=O)c4ccn(C)n4)O3)CC2)cc1 (stereo not given),inactive: 19.7%,–
COCC1CCCN(Cc2ccc3c(c2)CN(C(=O)c2cc(-c4ccccc4)n[nH]2)CCO3)C1 (stereo not given),inactive: -1.52%,–
C=CC1=C(C)C2=CC3=NC(=C(CC(=O)[O-])C4=NC(=C(C)C4=C([O-])[O-])C=c4[n-]c(c(C)c4CC)=CC1=N2)C(CCC(=O)[O-])C3C.[Cu+2].[Na+].[Na+].[Na+] (stereo not given),–,active: 89.1 µM
COCCCCCCCCCCCC(=O)O,inactive: -11% [at 15.3 µM],–
O=C(NCC1Cc2cccc(-c3cccnc3)c2O1)c1ccc2cc[nH]c2c1 (stereo not given),inactive: -9.54%,–
NCCNCCN,inactive: 21.4%,–
C=CC1(C)CC(=O)C2(O)C(C)(O1)C(OC(C)=O)C(O)C1C(C)(C)CCC(O)C12C (stereo not given),inactive: 15.3% [at 75.8 µM],–
COc1ccccc1-c1cc(Nc2ccc(F)cc2)ncn1,inactive: -3.78%,–
CC(C)CN1CCC2(CC1)CCN(C(=O)c1cnccn1)CC2,inactive: 18.3%,–
Nc1ncnc2c1c(-c1ccc(Oc3ccccc3)cc1)cn2C1CCCC1,inactive: 4.45% [at 75.8 µM],–
CN1C(=O)N(C)C2=NNC=NC2(O)C1=O (stereo not given),inactive: 10.7%,–
COC(=O)C1CCN(Cc2ccc3c(c2)CN(C(=O)c2ncc(C)[nH]2)CCO3)CC1,inactive: 23.5%,–
CCN(CC)CCc1nc(-c2ccccc2)no1,inactive: 2.86% [at 75.8 µM],–
CN(C)Cc1ccccc1-c1cncnc1Nc1ccccc1,inactive: -1.58%,–

Structure (SMILES),"activity change, negative = inhibition",Potency
c1cncc(-c2nc(-n3ccnc3)c3ccccc3n2)c1,inactive: -0.704%,–
CCCCC(CC)COC(=O)/C=C/c1ccc(OC)cc1 (stereo not given),inactive: -0.261%,–
Cc1ccc2ncc(C)c(C)c2c1,inactive: 21%,–
CCC(/C=C/C(C)C1CCC2C3CC=C4CC(O)CC[C@@]4(C)C3CC[C@@]12C)C(C)C (stereo not given in full),inactive: 19.5%,–
CCCCc1nc(Cl)c(CO)n1Cc1ccc(-c2ccccc2-c2nn[nH]n2)cc1,inactive: 8.71%,–
c1nc(N2CCNCC2)c2cc(-c3ccc4c(c3)OCO4)ccc2n1,inactive: 6.42%,–
CCCCCC[C@@H](O)C/C=C\CCCCCCCC(=O)O,inactive,–
CC1=CCC2CC1C2(C)C (stereo not given),inactive: 22.6%,–
CNCC(O)c1ccc(OC(=O)C(C)(C)C)c(OC(=O)C(C)(C)C)c1 (stereo not given),inactive: 23.8% [at 75.8 µM],–
CC(C)(C)NC(=O)[C@H]1CC[C@H]2[C@@H]3CC=C4C=C(C(=O)O)CC[C@]4(C)[C@H]3CC[C@]12C,inactive: 34.5%,–
CC(NC(=O)c1ccco1)c1nnc2n1CCN(Cc1ccc(N3CCCC3)cc1)CC2 (stereo not given),inactive: -3.27%,–
Cc1ccccc1-c1nccc(NCc2cccs2)n1,inactive: -21.3%,–
Cc1cccc(CNC(=O)c2cnn(-c3nccc(-c4ccccc4F)n3)c2C2CC2)n1,inactive: 16.3%,–
COCc1c(C(=O)N2CCN(C3CCCC3)CC2)cnn1-c1nccc(-c2cccs2)n1,inactive: -16.9%,–
COc1ccccc1CNc1ncnc2ccc(-c3cccc(C#N)c3)cc12,inactive: -9.96%,–
O=S(=O)(O)NC1CCCCC1,inactive: 14.1%,–
CN(Cc1ccco1)C(=O)c1cc(NC(=O)C2CCC2)c2c(c1)nc(-c1ccncc1)n2C,inactive: -3.58%,–
COc1cc(=O)n2c(c1C(=O)NC(C)c1ccco1)CCN(Cc1ccnc3ccccc13)CC2 (stereo not given),inactive: 8.89%,–
CC1(C)[C@H]2CC[C@]1(C)[C@H](O)C2,inactive: 11.7%,–
COc1cc(OC)c(/C=C/c2ccc3ccccc3n2)c(OC)c1,inactive: 11.9%,–
Cc1noc(C)c1CC(=O)NCC1Cc2cc(-c3cccc(OC(F)(F)F)c3)ccc2O1 (stereo not given),inactive: -1.58%,–
COc1ccccc1-c1nc2cc(C(=O)NC[C@H]3CCc4ccccc4O3)cc(NC(C)=O)c2n1C,inactive: -10.5%,–
CC(C)NC[C@@H](O)COc1cccc2ccccc12,inactive,–
CC(=O)Oc1ccc2c(c1)CCC1C2CC[C@@]2(C)C1CC(OC(C)=O)C2OC(C)=O (stereo not given in full),inactive: 16.4%,–
CCc1cn([C@H]2C[C@H](O)[C@@H](CO)O2)c(=O)[nH]c1=O,inactive: -8.77%,–
COC(=O)[C@H](CC(C)C)NS(=O)(=O)N[C@@H](CC(C)C)C(=O)OC,inactive: 7.84%,–
Cc1nc2cnc(N3CCN(C)CC3)nc2n(CCc2ccccc2)c1=O,inactive: 3.32%,–

Structure (SMILES),"activity change, negative = inhibition",Potency
CN1CCN(c2cc3c(nn2)Oc2ccccc2N3C)CC1,inactive: 11%,–
COc1ccc(C(=O)C[n+]2ccccc2Cl)cc1,inactive: 7.36%,–
Cc1c(C(=O)N(C)Cc2cscn2)sc2ncnc(NC[C@H]3CCc4ccccc4O3)c12,inactive: 14.9%,–
CCCCCc1ccc(-c2cn(Cc3cccc(OC)c3)nn2)cc1,inactive: -7.59%,–
COc1ccccc1C1CN(Cc2c(O)cccc2OC)Cc2ccccc2O1 (stereo not given),inactive: 8.51%,–
CC(=O)O[C@H](CC(=O)O)C[N+](C)(C)C,inactive: -3.04%,–
CCC1=C(C)CN(C(=O)NCCc2ccc(S(=O)(=O)NC(=O)NC3CCC(C)CC3)cc2)C1=O (stereo not given),inactive: 26.8%,–
N#CCCn1c(=O)c(CCc2ccccc2)nc2cnc(Oc3ccccc3)nc21,inactive: 6.24%,–
CN1CCN(c2nc3cc(C(F)(F)F)ccc3n3cccc23)CC1,inactive,–
COc1cccc(C2(CC(=O)N3CCN(c4ccccn4)CC3)CC(=O)N(C3CCCC3)C2=O)c1 (stereo not given),inactive: 3.48%,–
CC(C)(C)C1(O)CCN2CC3c4ccccc4CCc4cccc(c43)C2C1 (stereo not given),inactive: -0.178%,–
Fc1cccc(/C=N/N=C/c2cccc(F)c2)c1,inactive: 9.48% [at 75.8 µM],–
O=C(O)/C=C/c1ccc(Cn2ccnc2)cc1,inactive: 13.6% [at 75.8 µM],–
O=C(NO)c1ccccc1,inactive: 27.3% [at 320 µM],–
COc1ccc(-n2c(=O)c(-c3cn(C)c4ccccc34)nc3cnc(N4CCOCC4)nc32)cc1,inactive: 11.2%,–
COc1ccc(-n2c(CNC(=O)c3cc(C(F)(F)F)ccc3Cl)nnc2SC)cc1,inactive: 16.2%,–
COc1cccc(Cn2c(=O)c(-c3ccc(F)cc3)nc3cnc(N4CCNCC4)nc32)c1,inactive: -9.44%,–
CCN(CC)CCOc1ccccc1OC,inactive: 3.14%,–
O=C(c1ccncc1)N1CCC2(CCN(Cc3ccccc3)CC2)CC1,inactive: 11%,–
CCCCCCCCN1[C@@H](CC(=O)O)c2cc(C(F)(F)F)ccc2S1(=O)=O,inactive: 9.17%,–
CCc1nc2cc(C(=O)NC3CCS(=O)(=O)C3)cc(NC(=O)c3ccccc3OC)c2n1C (stereo not given),inactive: 9.26%,–
COc1cccc(-c2cc(NCCc3c[nH]c4ccc(OC)cc34)ncn2)c1,inactive: -18.4%,–
Cc1ncc2c(c1CNC(=O)/C=C/c1cccs1)CCN(C(=O)c1cc(C(C)C)on1)C2,inactive: 13.1%,–
COCCOC(=O)C1=C(C)NC(C)=C(C(=O)OC/C=C/c2ccccc2)C1c1cccc([N+](=O)[O-])c1 (stereo not given),inactive,–
